Experimental data from the supplement of paper PMC5919970.
Counter-ions that a name gives are not always drawn. Over roughly 2,000 compounds, “fractional viability relative to vehicle” has its median near 0.92; the lowest 2% begin near 0.11. The list shows a part of the results.

Tested on: TYKNU
Assay: fractional viability relative to vehicle; TYKNU is a high-grade serous ovarian cancer line; higher = less growth inhibition
Conditions: 72 h, genotype: OPA1 knockout (sgOPA1 #2)
Procedure, shortened: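 TYKNU control cells or lentiCRISPRv2 knockout derivatives were seeded at 500 cells per well into drug-stamped 384-well plates holding a ~2100-compound library at 2 or 10 μM, in duplicate. Cells were grown at 37 °C in 5% CO2 in RPMI 1640 with 10% FBS, and drug treatment lasted 72 h. Viability was read by Cell Titer Glo luminescence. Duplicate treatment wells were averaged and normalised to duplicate control wells from the same plate position.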

Row | Compound | fractional viability (2uM) | fractional viability (10uM)
1 | COc1ccc2[nH]c([S+]([O-])Cc3ncc(C)c(OC)c3C)nc2n1 (configuration not stated) [Tenatoprazole] | 1.03 | 0.972
2 | CCOC(=O)CCNc1cc(N2CCc3ccccc3CC2)nc(-c2ccccn2)n1 | 0.533 | 0.297
3 | CN(C)CCOC(c1ccccc1)c1ccccc1 [Diphenhydramine HCl] | 1.27 | 0.888
4 | Nc1cccc2c1C(=O)N(C1CCC(=O)NC1=O)C2=O (configuration not stated) [Pomalidomide] | 1.18 | 1.05
5 | Oc1ccc(OC2CCCCO2)cc1 (configuration not stated) [Deoxyarbutin] | 0.967 | 0.834
6 | N[C@@H](Cc1cc(I)c(Oc2cc(I)c(O)c(I)c2)c(I)c1)C(=O)O [L-Thyroxine] | 1.08 | 1.01
7 | CC1(C)CCC(C)(C)c2cc(NC(=O)c3ccc(C(=O)O)cc3)ccc21 [Tamibarotene] | 0.873 | 0.735
8 | COc1cc(C(=O)O)ccc1NC(=O)[C@@H]1N[C@@H](CC(C)(C)C)[C@](C#N)(c2ccc(Cl)cc2F)[C@H]1c1cccc(Cl)c1F [Idasanutlin (RG-7388)] | 0.86 | 0.841
9 | O=C(O)C(O)Cc1ccc(O)c(O)c1 (configuration not stated) [Sodium Danshensu] | 1.04 | 0.885
10 | O=C1Nc2ccccc2/C1=C1/Nc2ccccc2C1=O [Indirubin] | 0.882 | 0.972
11 | Clc1ccc(CSC(Cn2ccnc2)c2ccc(Cl)cc2Cl)cc1 (configuration not stated) [Sulconazole Nitrate] | 0.878 | 0.781
12 | O=C(c1ccc(Nc2nccc(-c3cc4ccccc4s3)n2)cc1)N1CCC(N2CCCC2)CC1 [IKK-16 (IKK Inhibitor VII)] | 0.74 | 0.0971
13 | Nc1ncnc2c1ncn2[C@@H]1O[C@H](CO)[C@@H](O)[C@H]1O [Adenosine] | 1.1 | 1.01
14 | Cc1cc(C)c(Nc2ccnc(Nc3ccc(C#N)cc3)n2)c(C)c1 [Dapivirine (TMC120)] | 0.814 | 0.461
15 | Cc1cc(/C=C2/SC(=S)NC2=O)c(C)n1-c1cccnc1 [Optovin] | 0.821 | 0.988
16 | Nc1ccn([C@@H]2O[C@H](CO)[C@@H](O)C2(F)F)c(=O)n1 [Gemcitabine] | 0.34 | 0.299
17 | COc1ccccc1N1CCN(CCN(C(=O)C2CCCCC2)c2ccccn2)CC1 | 0.824 | 0.89
18 | CN(C)CCN(Cc1ccccc1)c1ccccn1 [Tripelennamine HCl] | 1.04 | 0.894
19 | CC1CNc2c(cccc2S(=O)(=O)N[C@@H](CCCNC(=N)N)C(=O)N2CC[C@@H](C)C[C@@H]2C(=O)O)C1 (some centres not stated) [Argatroban] | 1.07 | 1.2
20 | Fc1ccc(Cl)cc1-c1nc(Nc2ccncc2)c2nccnc2n1 | 1.31 | 1.21
21 | CO[C@H]1C[C@@H]2CC[C@@H](C)[C@@](O)(O2)C(=O)C(=O)N2CCCC[C@H]2C(=O)O[C@H]([C@H](C)C[C@@H]2CC[C@@H](OCCO)[C@H](OC)C2)CC(=O)[C@H](C)/C=C(\C)[C@@H](O)[C@@H](OC)C(=O)[C@H](C)C[C@H](C)/C=C/C=C/C=C/1C [Everolimus (RAD001)] | 0.862 | 0.662

Row | Compound | fractional viability (2uM) | fractional viability (10uM)
22 | O=C(/C=C/c1ccccc1)NC(NC(=S)Nc1cccc2cccnc12)C(Cl)(Cl)Cl (configuration not stated) [Salubrinal] | 0.896 | 0.834
23 | CC(=O)O[C@@]12CO[C@@H]1C[C@H](O)[C@@]1(C)C(=O)[C@H](O)C3=C(C)[C@@H](OC(=O)[C@H](O)[C@@H](NC(=O)OC(C)(C)C)c4ccccc4)C[C@@](O)([C@@H](OC(=O)c4ccccc4)[C@H]21)C3(C)C [Docetaxel] | 0.703 | 0.79
24 | CCC[C@@H]1C[C@@H](C(=O)N[C@@H]([C@H]2O[C@H](SC)[C@H](O)[C@@H](O)[C@H]2O)[C@H](C)Cl)N(C)C1 [Clindamycin HCl] | 1.05 | 1.24
25 | CCC[C@@H]1C[C@@H](C(=O)N[C@@H]([C@H]2O[C@H](SC)[C@H](O)[C@@H](O)[C@H]2O)[C@H](C)Cl)N(C)C1 [Clindamycin] | 0.977 | 1.42
26 | CO[C@H]1/C=C\C=C(/C)C(=O)NC2=CC(=O)C(NCCN(C)C)=C(C[C@@H](C)C[C@H](OC)[C@H](O)[C@@H](C)/C=C(\C)[C@@H]1OC(N)=O)C2=O [17-DMAG (Alvespimycin) HCl] | 0.93 | 0.744
27 | O=C(N[C@H](CO)[C@H](O)c1ccc([N+](=O)[O-])cc1)C(Cl)Cl [Chloramphenicol] | 0.954 | 1.05
28 | O=C(O)CCNC(=O)c1ccccc1 [Betamipron] | 1.14 | 0.982
29 | C=C1/C(=C\C=C2/CCC[C@]3(C)[C@@H]([C@H](C)CCCC(C)C)CC[C@@H]23)C[C@@H](O)C[C@@H]1O [Alfacalcidol] | 1.19 | 0.804
30 | CCN(CC)CCNC(=O)c1cc(Cl)c(N)cc1OC [MetoclopraMide HCl] | 0.918 | 0.992
31 | CCOc1ccc2ccccc2c1C(=O)N[C@@H]1C(=O)N2[C@@H]1SC(C)(C)[C@@H]2C(=O)O [Nafcillin Sodium] | 1 | 0.905
32 | CC1=NN(c2ccccc2)C(=O)C1 [Edaravone] | 1.02 | 0.955
33 | COc1ccccc1Oc1c(NS(=O)(=O)c2ccc(C(C)(C)C)cc2)nc(-c2ncccn2)nc1OCCO [Bosentan Hydrate] | 1.07 | 0.903
34 | COc1ccccc1Oc1c(NS(=O)(=O)c2ccc(C(C)(C)C)cc2)nc(-c2ncccn2)nc1OCCO [Bosentan] | 0.975 | 0.973
35 | COc1cc2c(Oc3ccc(NC(=O)C4(C(=O)Nc5ccc(F)cc5)CC4)cc3F)ccnc2cc1OCCCN1CCOCC1 | 1.05 | 0.161
36 | C[S+]([O-])c1ccc(-c2nc(-c3ccc(F)cc3)c(-c3ccncc3)[nH]2)cc1 (configuration not stated) | 1.15 | 1.31
37 | CN1CCC[C@@H]1Cc1c[nH]c2ccc(CCS(=O)(=O)c3ccccc3)cc12 [Eletriptan HBr] | 0.776 | 0.84
38 | CC#CC(=O)N1CC[C@@H](n2c(=O)n(-c3ccc(Oc4ccccc4)cc3)c3c(N)ncnc32)C1 | 0.767 | 0.851
39 | Cc1onc(-c2ccccc2Cl)c1C(=O)N[C@@H]1C(=O)N2[C@@H]1SC(C)(C)[C@@H]2C(=O)O [Cloxacillin Sodium] | 0.961 | 1
40 | C#Cc1cccc(Nc2ncnc3cc(OCCOC)c(OCCOC)cc23)c1 [Erlotinib] | 0.974 | 0.882
41 | C#Cc1cccc(Nc2ncnc3cc(OCCOC)c(OCCOC)cc23)c1 [Erlotinib HCl (OSI-744)] | 1.13 | 0.84
